Laboratory results taken from the antibiotic and cytotoxicity screens of Wong et al. (2023).
Some of the results follow.

Key:
HSkMC = human skeletal muscle cells; experiment: cytotoxicity call (relative viability < 0.9); details: 10 µM
HepG2 = experiment: cytotoxicity call (relative viability < 0.9); details: 10 µM
S. aureus RN4220 = experiment: growth inhibition call (relative growth <= 0.2); details: 50 µM

Row | Compound | cytotoxicity call (HSkMC) | cytotoxicity call (HepG2) | growth inhibition call (S. aureus RN4220)
1 | CNC(=O)CN1C(=O)[C@@H]2[C@@H](C1=O)[C@@H]1C=C[C@@H]2C1 | inactive | inactive | inactive
2 | C=CCOC(=O)[C@@H]1[C@H]2C(=O)O[C@H](c3ccccc3)[C@H](c3ccccc3)N2[C@H](c2ccc(OCCOC(=O)[C@@H]3C[C@@H]4C(=O)N5CCC[C@H]5C(=O)N4[C@@H]3c3ccc(O)cc3)cc2)[C@@]12C(=O)Nc1ccc(I)cc12 | inactive | inactive | inactive
3 | NC(=O)CCN1C(=O)c2ccccc2C1=O | inactive | inactive | inactive
4 | C[C@@H]1CN([C@@H](C)CO)C(=O)c2cccc(NC(=O)c3ccncc3)c2O[C@@H]1CN(C)S(=O)(=O)c1cccs1 | inactive | active | inactive
5 | COc1ccc(NC(=O)N(C)C[C@@H]2Oc3c(NC(=O)C4CCOCC4)cccc3C(=O)N([C@@H](C)CO)C[C@@H]2C)cc1 | inactive | inactive | inactive
6 | CCCNC(=O)Nc1ccc2c(c1)C(=O)N(C)C[C@H](OC)[C@H](C)CN(C(=O)C1CCOCC1)[C@H](C)CO2 | inactive | inactive | inactive
7 | C[C@@H]1CN([C@@H](C)CO)C(=O)c2cc(NC(=O)Cc3ccccc3)ccc2O[C@@H](C)CCCCO[C@@H]1CN(C)C(=O)Nc1ccccc1 | inactive | inactive | inactive
8 | Cc1ccc(S(=O)(=O)N(C)C[C@H]2OCCCC[C@H](C)Oc3ccc(NC(=O)Nc4ccc5c(c4)OCO5)cc3C(=O)N([C@H](C)CO)C[C@H]2C)cc1 | inactive | inactive | inactive
9 | CN1CCN(C(=O)C[C@H]2CC[C@@H]3[C@@H](COc4ccc(NC(=O)c5ccc(F)c(F)c5)cc4C(=O)N3C)O2)CC1 | inactive | inactive | inactive
